# About 4,300 (8.3%) of roughly 52,000 compounds were called active. No stated cut-off is given here; in the data, active means survival mostly below about 52% (no sharp cut-off); inactive means mostly above about 56%. The list shows a part of the results.
# Test system: DeltatarO mutant
# Test: S. aureus survival, RN4220 and DeltatarO strains – OD600, teichoic acid synthesis inhibitors, primary screen (AID 463173)
# Settings: S. aureus RN4220 wild type/DeltatarO growth, OD600, 18 h, stronger effect = lower value, screened at 18.75 µg/mL (by protocol)
row,Compound,survival
1,CCCCN(C)CCNC(=O)c1ccc2c(=O)n(CCc3ccccc3)c(=O)[nH]c2c1,inactive: 77%
2,CCc1ccc(NC(=O)C(NS(=O)(=O)c2cccs2)C(C)C)cc1 (stereo not given),active: 55%
3,Cn1c(=O)c2c(-c3ccccc3)n3c(c2n(C)c1=O)C(c1ccccc1[N+](=O)[O-])Nc1ccccc1-3 (stereo not given),inactive: 79%
4,CCOC(=O)c1sc(N(C)C(C)=O)nc1C,inactive: 103%
5,Cc1ccc(-c2nc3nc(C)cc(N4CCN(c5cc(Cl)ccc5C)CC4)n3n2)cc1,inactive: 86%
6,COc1ccc(-c2cc(C(=O)Oc3ccccc3)c3cc(C)ccc3n2)cc1,active: 9%
7,CCn1c(=O)n(-c2ccc(C)c(F)c2)c(=O)c2sc3ccccc3c21,inactive: 76%
8,COc1cccc(-n2c(SCC(=O)Nc3cc(C)ccc3C)nc3c(oc4ccccc43)c2=O)c1,inactive: 75%
9,CCOCCCNC(=O)c1ccc2nc(CCc3ccccc3)oc2c1,inactive: 58%
10,COc1ccc(C2=NC3(CCCCC3)N(CC(=O)Nc3ccc(C(C)C)cc3)C2=O)cc1,inactive: 78%
11,CCOC(=O)c1oc2ccc(S(=O)(=O)n3nc(-c4ccccc4OC)cc3N)cc2c1C,inactive: 67%
12,O=C(COC(=O)c1cc(-c2cccs2)nc2ccccc12)c1ccccc1,inactive: 45%
13,CCCN(Cc1cccs1)C(=O)Nc1cc(Cl)c(OC)cc1OC,inactive: 62%
14,CCCN(CCC)CCCNC(=O)Cn1cnc2sc(C)c(S(=O)(=O)N3CCCCC3)c2c1=O,inactive: 81%
15,O=C(c1ccc2c(c1)N(Cc1ccccc1F)C(=O)c1ccccc1S2(=O)=O)N1CCOCC1,inactive: 89%
16,CCc1ccccc1NC(=O)CCn1nc(C)c2c(C)n(-c3ccccc3)nc2c1=O,inactive: 69%
17,COc1cccc(C2CC(=O)Nc3cc4c(cc32)OCCO4)c1OC (stereo not given),inactive: 72%
18,CCOC(=O)c1ccccc1NC(=O)Cn1ncc2c([nH]c3ccccc32)c1=O,inactive: 94%
19,Cc1ccccc1Cn1c(SCc2ccc(C(=O)NC(C)c3ccccc3)cc2)nc2ccncc21 (stereo not given),inactive: 83%
20,O=C(NCCc1cccs1)c1ccc(Cn2c(SCc3ccc(F)cc3)nc3cccnc32)cc1,inactive: 71%
21,CC1CCN(c2ncnc3c2cnn3-c2ccc(F)cc2)CC1,inactive: 70%
22,Fc1ccc(NCc2cccn2-c2nnc(N3CCOCC3)s2)cc1,inactive: 67%

row,Compound,survival
1,CCc1ccc(-n2c(=O)c3c4c(sc3n(CC(=O)NCCCOC)c2=O)CCCC4)cc1,inactive: 124%
2,O=c1[nH]c2ccc(N=Cc3ccccc3C(F)(F)F)cc2[nH]1,active: 71%
3,COc1ccc(C(=O)CN2CCN(S(=O)(=O)c3ccc(C(C)C)cc3)CC2)cc1,inactive: 81%
4,COc1cccc(CN2CCc3nc(Nc4ccc5c(c4)OCCO5)ncc3C2)c1,inactive: 102%
5,Cc1ccc2nc(N(Cc3cccnc3)C(=O)Cc3ccccc3)sc2c1,inactive: 70%
6,COC(=O)C1=C(c2ccccc2)c2ccccc2S(=O)(=O)N1CC(=O)Nc1cccc(C(C)=O)c1,inactive: 50%
7,CC1CCN(C(=O)c2ccc3nc(N4C(=O)CCC4=O)sc3c2)CC1,inactive: 95%
8,COc1cccc(NC(=O)c2sc3nc(C)c(C(=O)Nc4ccc(C)cc4C)c(-c4ccccc4Cl)c3c2N)c1,inactive: 101%
9,CCc1ccc(-c2nc(CN3CCC(C(=O)NCCc4ccc(Cl)cc4)CC3)c(C)o2)cc1,inactive: 77%
10,CCOc1ccc(-n2c(-c3ccc(C)cc3)nc3c(cnn3-c3ccccc3)c2=O)cc1,active: 42%
11,CCN(CC)CCC(=O)c1ccc(OC(C)C)cc1,inactive: 92%
12,CCOC(=O)C1CCC(CN(Cc2ccccc2)S(=O)(=O)c2ccc(Cl)cc2)CC1 (stereo not given),inactive: 70%
13,Cc1ccc(NC(=O)CCn2c(=O)c3cccn3c3ccccc32)c(Cl)c1,inactive: 57%
14,COc1ccc(CCNC(=O)CCc2c(C)nc3c(c(C)nn3-c3ccc(C)c(C)c3)c2C)c(OC)c1OC,inactive: 64%
15,CCOC(=O)c1c(S(=O)(=O)N2CCC(C(=O)Nc3ccccc3OC)CC2)c(C)n(CC)c1C,inactive: 80%
16,O=S(=O)(c1ccc(Br)cc1)c1nc(-c2ccco2)oc1SCc1ccccc1Cl,inactive: 149%
17,CCCCOc1ccc(CNC(=O)CN2CCSc3ccccc32)cc1,inactive: 92%
18,CCN(CC)c1nc(OCC(F)(F)F)nc(N(c2ccccc2)c2ccccc2)n1,inactive: 76%
19,COc1cccc(CNC(=O)CCn2c(=O)c3cccn3c3ccc(F)cc32)c1OC,inactive: 59%
20,COc1ccc(-n2nc(C(=O)N(C)c3cccc(C(F)(F)F)c3)c3c4ccccc4n(C)c3c2=O)cc1,inactive: 113%
21,CCC(C(=O)N1CCN(c2cccc(C)c2C)CC1)n1nc(C)c2sc3ccccc3c2c1=O (stereo not given),inactive: 64%
22,CCCNC(=O)C1CCC(Cn2c(=O)c3sccc3n(Cc3cccc(OC)c3)c2=O)CC1 (stereo not given),inactive: 67%

row,Compound,survival
1,CCn1nnc2cc(C(=O)Nc3cccc(Cl)c3)ccc21,inactive: 94%
2,Cc1nc2nc(NC(=O)c3cccc(Cl)c3)[nH]n2c(=O)c1Cc1ccccc1,inactive: 111%
3,O=C(O)CC(c1ccc(F)cc1)c1ccco1 (stereo not given),inactive: 97%
4,Cc1ccc(S(=O)(=O)c2nc(-c3cccs3)oc2N2CCCCC2)cc1,active: 39%
5,COc1ccc2c(c1)c1c(c(=O)n(-c3ccc(OC)c(OC)c3)c(=O)n1Cc1ccccc1C)n2C,inactive: 92%
6,CC(=O)c1cccc(NS(=O)(=O)c2ccc3[nH]c4c(c3c2)CCCCCC4)c1,inactive: 79%
7,Cc1ccc(-n2ncc(C(=O)NCCN3CCN(C)CC3)c2C2CCN(C(=O)OC(C)(C)C)CC2)c(C)c1,inactive: 92%
8,N#CC1=C(N)SC(N)=C(C#N)C1CCC1CCCCC1,active: 2%
9,COc1cccc(N2CC(NC(=O)Cc3cccs3)CC2=O)c1 (stereo not given),inactive: 69%
10,CN1C(=O)CC(=O)N(C)c2cc(S(=O)(=O)N(C)Cc3ccccc3)ccc21,active: 3%
11,CCn1cc(C(=O)NCCc2ccc(C)cc2)c(=O)c2cc(S(=O)(=O)N(C)C)ccc21,inactive: 82%
12,CCCCN(CCCC)CCNC(=O)c1cn(C)c2ccc(S(=O)(=O)N3CCOCC3)cc2c1=O,inactive: 93%
13,Cc1c(Cl)cccc1NS(=O)(=O)c1ccc2[nH]cc(C(=O)NC3CCCC3)c(=O)c2c1,active: 7%
14,c1ccc(Cn2nnnc2C(c2ccccc2)N2CCN(Cc3ccncc3)CC2)cc1 (stereo not given),inactive: 78%
15,C#CC(C)(C)NS(=O)(=O)c1cc(-c2nnc(Nc3ccc(C)cc3)c3ccccc23)ccc1C,inactive: 69%
16,Cc1ccc(NC(=O)CN(c2ccccc2)S(=O)(=O)N(C)C)cc1Cl,inactive: 58%
17,Cc1ccc(NC(=O)NCc2ccc3c(c2)CCN3C(=O)c2ccccc2)c(Cl)c1,inactive: 82%
18,COc1ccc(OC)c(S(=O)(=O)Nc2cc3c(cc2C)n(C)c(=O)c(=O)n3C)c1,inactive: 84%
19,CN(Cc1ccccc1)C(=O)CN1C(=O)CSc2ccc(S(=O)(=O)N3CCOCC3)cc21,inactive: 88%
20,COc1ccc(NC(=O)CCS(=O)(=O)c2nc(-c3cccs3)cc(C(F)(F)F)n2)cc1OC,inactive: 77%
21,O=C(c1noc2c1CCCCC2)N1CCN(c2ccc(Cl)cc2)CC1,inactive: 98%
22,COc1ccccc1NC(=O)Cn1c(=O)n(Cc2ccc3c(c2)OCO3)c(=O)c2oc3ccccc3c21,inactive: 77%

row,Compound,survival
1,CCc1ccc(-c2cn3c(n2)sc2cc(C(=O)NCCc4ccc(OC)cc4OC)ccc23)cc1,inactive: 59%
2,Oc1c(C(c2ccccc2)N2CCC3(CC2)OCCO3)sc2nc(-c3ccco3)nn12 (stereo not given),inactive: 69%
3,Cc1nc(N2CCOCC2)c2c(C(=O)NCc3cccc(Cl)c3)c(C)oc2n1,inactive: 98%
4,CCCC(=O)C1=C(O)C(C(=O)OC)C(C)(C)CC1=N (stereo not given),inactive: 95%
5,COc1ccc(-c2nc3c(c(SCC(=O)Nc4ccc(C(=O)O)cc4)n2)Cc2ccccc2O3)cc1,inactive: 66%
6,CCOC(=O)Cc1ccc(NC(=O)Nc2cccc(OCc3cc(=O)n4cc(C)ccc4n3)c2)cc1,inactive: 92%
7,O=C(CCCCCn1c(=O)c2sccc2n(CC(=O)Nc2cccc(Cl)c2)c1=O)NCc1ccc2c(c1)OCO2,inactive: 57%
8,CCc1cccc(NC(=O)CSc2ncc3c(n2)-c2ccc(Cl)cc2N(Cc2ccccc2)S3(=O)=O)c1,inactive: 92%
9,COc1cccc(C(=O)NC2(C(F)(F)F)C(=O)Nc3c2c(=O)[nH]c(=O)n3-c2ccc(C)cc2)c1 (stereo not given),inactive: 83%
10,CCc1c(C)sc2c1CCN(C(=O)Nc1cc(OC)c(OC)c(OC)c1)C2c1ccccc1 (stereo not given),active: 25%
11,COc1ccc(NC(=O)c2cn(CC(C)C)c(=O)c3cc(OC)c(OC)cc23)cc1Cl,inactive: 50%
12,NS(=O)(=O)c1ccc(CCNC(=O)CCCCCn2c(=O)[nH]c3ccccc3c2=O)cc1,inactive: 74%
13,Cc1ccc(NC(=O)c2nn(C)c3c2CS(=O)(=O)c2ccccc2-3)c(Cl)c1,inactive: 59%
14,CCOc1ccc(C(=O)c2cn(CC(=O)Nc3ccc(F)cc3)c3cc4c(cc3c2=O)OCCO4)cc1,inactive: 109%
15,O=C(CSc1nnc(-c2ccccc2)c(-c2ccccc2)n1)NC1CCCC1,inactive: 77%
16,CCOc1ccc(OCC)c(NS(=O)(=O)c2c(C(=O)N3CCCCCC3)c(C)n(C)c2C)c1,inactive: 76%
17,O=C(NCCCO)C(=O)NCC(c1ccc2c(c1)OCO2)N1CCOCC1 (stereo not given),active: 37%
18,Cc1ccc(OCCn2c(CCNC(=O)C3CCCCC3)nc3ccccc32)cc1,inactive: 61%
19,Cc1ccc2c(=O)cc(C(=O)Nc3ccc(S(=O)(=O)N(C)Cc4ccccc4)cc3)oc2c1C,inactive: 92%

# — PubChem BioAssay AID463173 (ICCB-Longwood Screening Facility, Harvard Medical School, 2010)
